The whole screen tested about 310,000 compounds, of which about 14,000 (4.5%) showed an effect of 50% or more. Effects have a minus sign here. The list shows a part of the results.
The compounds below were run against human ether-à-go-go-related gene (hERG) potassium channel (human, UniProt Q12809) (assay: primary screen, population patch clamp on CHO cells stably expressing hERG).
human ether-à-go-go-related gene (hERG) potassium channel, sequence (Q12809 whole entry, looked up): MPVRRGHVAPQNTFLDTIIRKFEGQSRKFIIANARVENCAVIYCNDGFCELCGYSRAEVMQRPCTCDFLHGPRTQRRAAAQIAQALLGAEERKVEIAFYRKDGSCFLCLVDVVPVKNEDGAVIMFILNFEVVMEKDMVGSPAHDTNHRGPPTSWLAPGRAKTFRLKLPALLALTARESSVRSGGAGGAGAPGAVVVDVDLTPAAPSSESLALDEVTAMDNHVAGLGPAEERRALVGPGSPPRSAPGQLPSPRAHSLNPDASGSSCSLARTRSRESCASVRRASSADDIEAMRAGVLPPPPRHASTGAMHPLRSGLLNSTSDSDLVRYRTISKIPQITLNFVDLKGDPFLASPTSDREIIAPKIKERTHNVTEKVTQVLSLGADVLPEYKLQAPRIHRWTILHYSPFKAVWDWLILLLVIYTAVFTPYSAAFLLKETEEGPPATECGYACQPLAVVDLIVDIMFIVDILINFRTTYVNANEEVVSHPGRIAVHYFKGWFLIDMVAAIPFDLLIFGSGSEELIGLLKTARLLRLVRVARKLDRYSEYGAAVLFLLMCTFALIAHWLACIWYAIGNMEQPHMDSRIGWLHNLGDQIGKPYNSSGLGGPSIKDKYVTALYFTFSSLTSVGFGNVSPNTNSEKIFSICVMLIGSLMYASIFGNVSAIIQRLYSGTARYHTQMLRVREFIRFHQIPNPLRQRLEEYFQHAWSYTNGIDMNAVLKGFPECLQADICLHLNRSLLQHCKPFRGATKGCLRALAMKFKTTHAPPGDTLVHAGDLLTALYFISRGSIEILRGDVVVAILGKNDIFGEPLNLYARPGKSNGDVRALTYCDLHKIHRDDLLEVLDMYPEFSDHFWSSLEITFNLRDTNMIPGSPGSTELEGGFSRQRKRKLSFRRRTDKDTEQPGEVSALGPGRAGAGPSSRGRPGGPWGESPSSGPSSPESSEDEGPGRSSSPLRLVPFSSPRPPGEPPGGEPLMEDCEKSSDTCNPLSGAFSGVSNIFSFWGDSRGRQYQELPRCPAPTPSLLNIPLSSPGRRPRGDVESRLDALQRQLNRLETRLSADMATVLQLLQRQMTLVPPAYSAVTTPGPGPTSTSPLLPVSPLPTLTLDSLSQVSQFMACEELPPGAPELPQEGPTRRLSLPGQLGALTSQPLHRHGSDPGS
With COc1ccc(C(=O)/C=C/c2ccc(OC3CSC3)cc2)cc1 the “hERG current change (%, negative = inhibition) at 10uM” value was -1.08%.
In the case of CC1CCN(c2ccc(NC(=S)NC(=O)c3ccco3)cc2)CC1, the “hERG current change (%, negative = inhibition) at 10uM” value is reported as 1.81%.
O=C(CSc1nc(-c2ccccc2Cl)ns1)c1ccc(Cl)cc1 was tested, and the “hERG current change (%, negative = inhibition) at 10uM” value was 19.2%.
NC(=O)C1CCN(C(=O)/C=C/c2ccccc2[N+](=O)[O-])CC1 was tested, and the “hERG current change (%, negative = inhibition) at 10uM” value was -5.54%.
O=C(O)CCNc1nc(-c2ccccc2)c2cc(Br)ccc2n1 was tested, and the “hERG current change (%, negative = inhibition) at 10uM” value was 4.59%.
In the case of CCCCn1c(N)c(C(=O)OCC2CCCO2)c2nc3ccccc3nc21 (stereo not drawn), the “hERG current change (%, negative = inhibition) at 10uM” value is reported as -49.1%.
CC(C)=CC(=O)Nc1nnc(-c2ccccc2C)s1 was tested, and the “hERG current change (%, negative = inhibition) at 10uM” value was 14.1%.
For O=C(Cn1ccc2ccccc2c1=O)NCCC(=O)Nc1cccc(Cl)c1, the “hERG current change (%, negative = inhibition) at 10uM” value was 18.6%.
For COc1cccc(CNC(=O)CCS(=O)(=O)c2cccc3nsnc23)c1, the “hERG current change (%, negative = inhibition) at 10uM” value was 3.14%.
For c1ccc(CCC2CCCCN2Cc2nc(C3CC3)no2)cc1 (stereo not drawn), the “hERG current change (%, negative = inhibition) at 10uM” value was -16.8%.
CCN(CC)S(=O)(=O)c1ccc(NC(=O)c2c(-c3ccccc3)noc2C)cc1 was tested, and the “hERG current change (%, negative = inhibition) at 10uM” value was -15.7%.
CCC1(C(=O)c2ccccc2)C(c2ccc([N+](=O)[O-])cc2)C1(C(=O)OC)C(=O)OC (stereo not drawn) was tested, and the “hERG current change (%, negative = inhibition) at 10uM” value was -7.87%.
In the case of CC(=O)C[C@H]1c2ccccc2S(=O)(=O)N1C1CCCC1, the “hERG current change (%, negative = inhibition) at 10uM” value is reported as 14.2%.
With O=c1c2[nH]c3ccc(F)cc3c2ncn1CCC1=CCCCC1 the “hERG current change (%, negative = inhibition) at 10uM” value was 12.5%.
CC(=O)NC1C(O)OC(CO)C(O)C1O (stereo not drawn) was tested, and the “hERG current change (%, negative = inhibition) at 10uM” value was 9.32%.
With O=S(=O)(NCc1cccs1)c1cccc(S(=O)(=O)N2CCCCC2)c1 the “hERG current change (%, negative = inhibition) at 10uM” value was -29.6%.
For CCN(C/C=C/c1ccccc1OC)Cc1ccccc1, the “hERG current change (%, negative = inhibition) at 10uM” value was -33.4%.
For COc1ccc(C(=O)NCCCN2CCOCC2)cc1, the “hERG current change (%, negative = inhibition) at 10uM” value was -1.82%.
O=C(Nc1ccc(F)cc1)C1(S(=O)(=O)c2ccc(Cl)cc2)CC1 was tested, and the “hERG current change (%, negative = inhibition) at 10uM” value was -46.9%.
For CC1CCCC(C)N1CC(O)COCc1ccccc1F.Cl (stereo not drawn), the “hERG current change (%, negative = inhibition) at 10uM” value was 13.2%.
In the case of CCOC(=O)C1CCN(C(=O)CCc2nc3ccccc3[nH]2)CC1, the “hERG current change (%, negative = inhibition) at 10uM” value is reported as -9.59%.
With CCOC1=NN(c2ncc(C(F)(F)F)cc2Cl)C(=O)/C1=C/N(C)C the “hERG current change (%, negative = inhibition) at 10uM” value was 12.5%.
CCN(CC)S(=O)(=O)c1ccc(C)c(NC(=O)CNc2cccc(S(=O)(=O)N3CCOCC3)c2)c1 was tested, and the “hERG current change (%, negative = inhibition) at 10uM” value was -17.7%.
For CCNC(=O)CSc1nnc(-c2cccs2)o1, the “hERG current change (%, negative = inhibition) at 10uM” value was 7.42%.
In the case of CCCCNC(=S)Nc1ccc2nc(N3CCN(CC)CC3)cc(C)c2c1, the “hERG current change (%, negative = inhibition) at 10uM” value is reported as -44.6%.
O=C(Nc1ccc(N2CCCCC2)cc1)c1cc(S(=O)(=O)N2CCOCC2)ccc1F was tested, and the “hERG current change (%, negative = inhibition) at 10uM” value was -9.76%.
For C/C(CC(=O)Nc1ccc2c(c1)OCCO2)=N\NC(=O)Cc1ccc(Cl)cc1, the “hERG current change (%, negative = inhibition) at 10uM” value was 11.2%.
For Cc1sc(NC(=O)c2cccnc2)nc1-c1ccccc1, the “hERG current change (%, negative = inhibition) at 10uM” value was 32.4%.
With Cc1ccsc1C(=O)Nc1cc(C(C)(C)C)nn1-c1ccccc1 the “hERG current change (%, negative = inhibition) at 10uM” value was -1.14%.
With Cc1nn(-c2ccccc2)c(Cl)c1C(=O)NCc1cccs1 the “hERG current change (%, negative = inhibition) at 10uM” value was -19.4%.
CCOc1ccccc1N(CC(=O)Nc1ccc(OC)c(OC)c1)S(=O)(=O)c1ccccc1 was tested, and the “hERG current change (%, negative = inhibition) at 10uM” value was 7.36%.
With CC(=O)NC1=NN(C(C)=O)C(C)(c2cccnc2)S1 (stereo not drawn) the “hERG current change (%, negative = inhibition) at 10uM” value was 30.5%.
In the case of CCCc1nnc(SCC(=O)Nc2nnc(CC)s2)n1CC1CCCO1 (stereo not drawn), the “hERG current change (%, negative = inhibition) at 10uM” value is reported as 2.42%.
In the case of COc1ccc(NC(=O)CSc2nnc(Cc3cccs3)n2C)cc1, the “hERG current change (%, negative = inhibition) at 10uM” value is reported as -0.827%.
With COc1cc(N)c(Cl)cc1C(=O)OCC(=O)NC1CCCC1 the “hERG current change (%, negative = inhibition) at 10uM” value was 15.3%.
In the case of CC1CCN(C(=O)CSc2ccc(-c3ccc4c(c3)OCCO4)nn2)CC1, the “hERG current change (%, negative = inhibition) at 10uM” value is reported as 1.43%.
In the case of CC(=O)NC(C(=O)OCC(=O)N(c1ccccc1)c1ccccc1)C(C)C (stereo not drawn), the “hERG current change (%, negative = inhibition) at 10uM” value is reported as 8.03%.
With CC1=C(C(=O)Nc2ccccc2C(=O)NC2CCCCC2C)SCCO1 (stereo not drawn) the “hERG current change (%, negative = inhibition) at 10uM” value was -7.39%.
For Cc1ccc(S(=O)(=O)N2CCC(C(=O)NCc3ccccc3CN3CCCC3)CC2)cc1C, the “hERG current change (%, negative = inhibition) at 10uM” value was -68.7%.
With COc1cc(/C=C2\SC(=O)N(c3ccc(O)cc3)C2=O)cc(OC)c1OC the “hERG current change (%, negative = inhibition) at 10uM” value was -6%.
O=C1c2cccnc2C(=O)N1CNc1ccc(Cl)cc1 was tested, and the “hERG current change (%, negative = inhibition) at 10uM” value was 51.4%.
For CCCn1nnnc1SCC(=O)NCc1ccc2c(c1)OCO2, the “hERG current change (%, negative = inhibition) at 10uM” value was 5.52%.
For COc1cc(C(=O)NCCNC(=O)c2cnccn2)cc(OC)c1OC, the “hERG current change (%, negative = inhibition) at 10uM” value was 2.14%.
Cc1nc2c(-c3ccccc3)c(C)nn2c(SCC(N)=O)c1Cc1ccccc1 was tested, and the “hERG current change (%, negative = inhibition) at 10uM” value was 8%.
With Cn1c(C(=O)N2CCC(C(N)=O)CC2)cc2c(=O)n(C)c3ccccc3c21 the “hERG current change (%, negative = inhibition) at 10uM” value was 12.9%.

— paper PMC4336329 (PLoS ONE, 2015)
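Note: peak tail current of the secondary pulse compared with the same well before compound.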
